Results reported in PubChem BioAssay AID360 (National Center for Advancing Translational Sciences (NCATS), 2006).
The campaign covered roughly 48,000 compounds. About 550 (1.1%) were called active. Another 4% or so got no clear call; they are omitted. Cut-off read from the data, not from the text of the source: active = potency below about 15 µM; inconclusive = mostly about 16 µM to 33 µM; inactive = weaker than that. Some of the results follow.

biological target: Lysosomal acid glucosylceramidase (Homo sapiens) (UniProt P04062); experiment: Glucocerebrosidase; details: purified enzyme, resorufin glucoside fluorescence (screen aimed at inhibitors), 20 min; series mostly up to 77 µM;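 note: the screen sought inhibitors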
Sequence of UniProt P04062 (P04062 whole entry, looked up): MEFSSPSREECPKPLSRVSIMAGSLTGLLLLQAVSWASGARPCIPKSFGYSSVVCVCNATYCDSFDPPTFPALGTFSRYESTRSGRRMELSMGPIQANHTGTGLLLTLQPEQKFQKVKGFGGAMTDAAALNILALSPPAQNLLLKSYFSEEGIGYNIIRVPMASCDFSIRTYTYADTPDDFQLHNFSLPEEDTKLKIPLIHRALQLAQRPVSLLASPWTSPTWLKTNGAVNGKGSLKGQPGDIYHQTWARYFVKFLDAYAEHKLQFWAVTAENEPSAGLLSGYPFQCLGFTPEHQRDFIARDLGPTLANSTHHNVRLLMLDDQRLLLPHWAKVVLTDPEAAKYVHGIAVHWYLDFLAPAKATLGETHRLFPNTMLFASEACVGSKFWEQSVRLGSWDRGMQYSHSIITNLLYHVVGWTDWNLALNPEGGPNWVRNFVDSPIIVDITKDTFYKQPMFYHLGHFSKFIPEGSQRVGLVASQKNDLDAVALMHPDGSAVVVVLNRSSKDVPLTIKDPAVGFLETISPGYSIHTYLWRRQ
Procedure, shortened: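 Compounds titrated against 0.2 nM normal enzyme, 30 uM resorufin beta-D-glucopyranoside substrate, citrate/phosphate buffer with taurocholate and tween-20, pH 5.9. Reaction ran 20 min at room temperature; fluorescence (Ex 548/Em 600) gave AC50.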
Potency is the fitted concentration of half-maximal effect.

Potency, inactive:
Cc1cccc(-c2noc(C3CCCCC3)n2)c1 > 76.9 µM
COc1ccc(C)cc1-n1c(N)c(C#N)c(C#N)c1-c1ccc(OC)c(OC)c1OC > 76.9 µM
Cc1nn(-c2ccccc2)c(C)c1C(=O)Nc1nnc(-c2ccco2)o1 > 76.9 µM
CCOC(=O)Nc1cccc(Nc2ccccc2)c1 > 76.9 µM
Cc1cc(C)n(-c2nc3ccccc3nc2Nc2ccc3[nH]c(=O)[nH]c3c2)n1 > 76.9 µM
COc1ccc(C2CCN(Cc3cccnc3)CC2O)cc1 (stereo unspecified) > 76.9 µM
O=C(CCn1c(=O)oc2ccccc21)N1CCCCCC1 > 76.9 µM
O=C(Cc1cccs1)Nc1nnc(SCC(=O)NC2CCCCC2)s1 > 76.9 µM
CCOC(=O)c1cn(CC(=O)Nc2ccc(C)cc2)nn1 > 76.9 µM
NC(=O)c1ccc(-n2nnnc2Oc2ccccc2C(=O)N2CCOCC2)cc1 > 76.9 µM
CN(c1ccccc1)S(=O)(=O)c1cc(C(=O)c2nccn2C)ccc1Cl > 76.9 µM
COCCn1c(SCC(=O)Nc2cccc(C)c2)nnc1C(C)C > 76.9 µM
CCOC(=O)c1ccc(NS(=O)(=O)c2cc(-c3nnnn3C(C)C)ccc2OC)cc1 > 76.9 µM
COC(=O)c1c(C#N)c(N)nc2c1CCCC2 > 76.9 µM
O=C(c1cc2ccccc2o1)n1nnc2ccccc21 > 76.9 µM
c1ccc(CCc2nc(-c3ccncc3)no2)cc1 > 76.9 µM
Cn1c(=O)oc2cc(S(=O)(=O)NCC3CCCO3)ccc21 (stereo unspecified) > 76.9 µM
CCn1c(SCc2ccc(C)cc2)nnc1-c1cnccn1 > 76.9 µM
CCOC(=O)C1CCN(C(c2cc3ccc(C)cc3[nH]c2=O)c2nnnn2C2CCCCC2)CC1 (stereo unspecified) > 76.9 µM
O=C(NCCN1CCN(C(=O)c2cccs2)CC1)c1cccs1 > 76.9 µM
O=C(CSc1nc2ccccc2c(=O)n1CC1CCCO1)N1CCN(c2ccccc2)CC1 (stereo unspecified) > 76.9 µM
CCn1c(C(=O)N2CCCC(C(=O)O)C2)cc2sccc21 (stereo unspecified) > 76.9 µM
COc1ccc(CCNC(=O)c2c[nH]c3ccccc3c2=O)cc1OC > 76.9 µM
CC(C(N)=O)N1C(=O)C2C3C=CC(C3)C2C1=O (stereo unspecified) > 76.9 µM
Cc1c(NC(=O)CSc2nnc3sc4ccccc4n23)c(=O)n(-c2ccccc2)n1C > 76.9 µM
O=C(NCc1ccccc1)c1c(O)c2cccc3c2n(c1=O)CCC3 > 76.9 µM
COc1ccc(-c2noc(CCC(=O)Nc3ccc(C)c(C)c3)n2)cc1 > 76.9 µM
CC(C(=O)NCCCN1CCOCC1)n1cccc1C(=O)c1ccccc1 (stereo unspecified) > 76.9 µM
CCN(C(C)=O)c1nnc(CSc2nc3ccccc3s2)s1 > 76.9 µM
Nc1scc(-c2ccncc2)c1Cl > 76.9 µM
CCCOc1c(OC)cccc1C1CC(=O)Nc2cc3c(cc21)OCCO3 (stereo unspecified) > 76.9 µM
CCC1CCCCN1C(=O)Cn1c(=O)oc2ccccc21 (stereo unspecified) > 76.9 µM
COc1ccccc1C1C(C(=O)c2cc3ccccc3o2)=C(O)C(=O)N1CCN(C)C (stereo unspecified) > 76.9 µM
CC(C)=CCCC(C)CN1CCC(O)CC1 (stereo unspecified) > 76.9 µM
COC(=O)c1ccccc1NC(=O)c1cccc(NC(=O)c2ccc(Br)o2)c1C > 76.9 µM
CC(=O)c1c(C)[nH]c(C(=O)OCc2nnc(-c3ccccc3)o2)c1C > 76.9 µM
O=C(O)CCSc1nnc(-c2ccncc2)n1-c1ccccc1 > 76.9 µM
CCCCn1c(CN(Cc2ccccc2)Cc2ccccc2)nc2c1c(=O)n(C)c(=O)n2C > 76.9 µM
Cc1ccccc1NS(=O)(=O)c1ccc(F)cc1 > 76.9 µM
C=CCn1c(SCC(=O)c2cc(C)n(C(C)COC)c2C)nc2sc(C)c(C)c2c1=O (stereo unspecified) > 76.9 µM
CCNCC(O)COCC(O)CNCC (stereo unspecified) > 76.9 µM
CCn1c(N2CCN(CC(=O)c3c(C)n(C)c4ccccc34)CC2)nc2c1c(=O)[nH]c(=O)n2C > 76.9 µM
O=C(CSc1nnnn1-c1ccccc1)c1cc2ccccc2oc1=O > 76.9 µM
COc1ccc(OCc2nn3c(-c4ccco4)nnc3s2)cc1 > 76.9 µM
O=C(COC(=O)c1ccc(Br)o1)NCCCc1ccccc1 > 76.9 µM
c1ccc(NCCCNc2ccccc2)cc1 > 76.9 µM
CSc1nc(N)c(C#N)c(-c2ccc(Cl)cc2)c1C#N > 76.9 µM
c1csc(CSc2nnc3sc4ccccc4n23)c1 > 76.9 µM
COc1ccc(CCNC(=O)CSC2=Nc3ccccc3C3=NC(C(C)C)C(=O)N23)cc1OC (stereo unspecified) > 76.9 µM
COc1cc(NC(=O)C2CCCN2C(=O)OCc2ccccc2)cc(OC)c1 (stereo unspecified)
O=C(CCCN1C(=O)c2ccccc2C1=O)NCCC1=CCCCC1 > 76.9 µM
Cc1ccccc1-n1c(C)nnc1SCC(=O)N1CC(=O)Nc2ccccc21 > 76.9 µM
O=C(CC(=O)NCc1cccnc1)NCc1cccnc1 > 76.9 µM
CC(=O)Nc1c(C(=O)O)oc2ccc(Cl)cc12 > 76.9 µM
O=C(COc1cnc2ccccc2n1)NCCC1=CCCCC1 > 76.9 µM
Cc1ccccc1CS(=O)(=O)CCC(=O)N1CCN(c2ccc(N3CCOCC3)nn2)CC1 > 76.9 µM
O=C(CSc1n[nH]c(=O)[nH]c1=O)c1ccccc1 > 76.9 µM
Cc1cccn2c(=O)c(C=Nc3c(C)n(C)n(-c4ccccc4)c3=O)c(N3CCCC3)nc12 > 76.9 µM
CCOC(=O)C(C(=O)OCC)[C@@H]1CS(=O)(=O)C[C@H]1C(C(=O)OCC)C(=O)OCC > 76.9 µM
Cc1cc2n(n1)C(c1ccc3c(c1)OCO3)Nc1ccccc1-2 (stereo unspecified) > 76.9 µM
O=S(=O)(c1ccccc1)N1CCN(Cc2ccccc2C(F)(F)F)CC1 > 76.9 µM
CCOC(=O)CSc1nc2ccccc2c(=O)n1CC1CCC(C(=O)NCc2ccco2)CC1 (stereo unspecified) > 76.9 µM
CN(C)S(=O)(=O)c1ccc2oc(SCC(=O)NCC(F)(F)F)nc2c1 > 76.9 µM
Cc1ccc(C2C3=C(CCCC3=O)Nc3nc(SCC(=O)NCc4ccco4)[nH]c(=O)c32)cc1 (stereo unspecified) > 76.9 µM
C=CCn1c(SCC(=O)Nc2cccc(C(=O)OC)c2)nnc1C(C)NC(=O)c1cccs1 (stereo unspecified) > 76.9 µM
COC(=O)c1ccccc1NC(=O)c1ccc2c(c1)C(=O)N(Cc1ccco1)C2=O > 76.9 µM
Cc1cc(C)c2c(N)c(C(=O)N3CCCCCC3)sc2n1 > 76.9 µM
CCN1C(=O)c2cccc3c(S(=O)(=O)Nc4ccccc4OC)ccc1c23 > 76.9 µM
c1ccc(-c2nnc(CN3CCC4(CC3)OCCO4)o2)cc1 > 76.9 µM
CC(=O)N=c1sc2ccccc2n1C > 76.9 µM
CCOC(=O)c1sc(NC(=O)CSc2nc3c(cc2C#N)CCCCCC3)c(C#N)c1C > 76.9 µM
Cc1ccc(-c2csc3nc(C)n(-n4c(C)ccc4C)c(=O)c23)o1 > 76.9 µM
Cc1nnc(SCc2cc(=O)[nH]c(N3CCCCC3)n2)s1 > 76.9 µM
O=C(CN1CCN(C(=O)c2cccc(F)c2)CC1)Nc1ccccc1F > 76.9 µM
CCOC(=O)N1CCC(NC(=O)C2CCCN(C(=O)N3CCOc4ccccc43)C2)CC1 (stereo unspecified) > 76.9 µM
C=C(C)COc1ccc(-c2ncncc2Oc2ccc(OC)cc2)c(O)c1 > 76.9 µM
Cc1cc(Cl)c2c(c1)[C@]1(C(=O)N2)[C@@H]2C(=O)N(Cc3ccccc3)C(=O)[C@@H]2[C@@H]2CCCN21
Cc1noc(C)c1C(=O)NC(C)c1ccc2c(c1)OCO2 (stereo unspecified) > 76.9 µM
CCOC(=O)C1=C(CN2CCOCC2)NC(=O)NC1c1cc(C)ccc1C (stereo unspecified) > 76.9 µM
COc1ccc(C)cc1S(=O)(=O)N(CC(=O)O)c1ccc(F)cc1 > 76.9 µM
Cc1csc(NC(=O)Cn2cnnn2)n1 > 76.9 µM
Cn1c(=O)n(Cc2ccc(Cl)cc2)c(=O)c2c1nc1n2CCN1Cc1ccco1 > 76.9 µM
CCOC(=O)Nc1ccc2c(C)cc(=O)oc2c1 > 76.9 µM
CCCCCn1c(-c2ccco2)nc2nc3ccccc3nc21 > 76.9 µM
Cc1onc(-c2ccccc2Cl)c1C(=O)NCC(=O)O > 76.9 µM
CCc1cc(=O)oc2cc(C)cc(OC(=O)c3ccco3)c12 > 76.9 µM
Cc1cccc(C)c1NC(=O)CSc1nnc(-c2ccncc2)n1Cc1ccco1 > 76.9 µM
Cc1c(C(=O)OC(C)C)[nH]c2c1C(=O)CCC2 > 76.9 µM
O=C(O)c1ccc(Cl)c(S(=O)(=O)N2CCCCCC2)c1 > 76.9 µM
Cc1cc(=O)[nH]c(SCC(=O)N2c3ccccc3CC2C)n1 (stereo unspecified) > 76.9 µM
Cc1ccc(C)c(OCCCC(=O)O)c1 > 76.9 µM
